Laboratory results published in paper PMC6276216.
Results are given in words; binding and its absence hold for the method and conditions named. In cells and extracts the contact can be indirect. Some entries that bind do so weakly or less than the wild type. Where a sequence is shown, tags or fusion partners need not be part of it.

Target: T1, HaloTag-NPAS3 isoform 1 (human) (UniProt Q8IXF0)
T1 sequence: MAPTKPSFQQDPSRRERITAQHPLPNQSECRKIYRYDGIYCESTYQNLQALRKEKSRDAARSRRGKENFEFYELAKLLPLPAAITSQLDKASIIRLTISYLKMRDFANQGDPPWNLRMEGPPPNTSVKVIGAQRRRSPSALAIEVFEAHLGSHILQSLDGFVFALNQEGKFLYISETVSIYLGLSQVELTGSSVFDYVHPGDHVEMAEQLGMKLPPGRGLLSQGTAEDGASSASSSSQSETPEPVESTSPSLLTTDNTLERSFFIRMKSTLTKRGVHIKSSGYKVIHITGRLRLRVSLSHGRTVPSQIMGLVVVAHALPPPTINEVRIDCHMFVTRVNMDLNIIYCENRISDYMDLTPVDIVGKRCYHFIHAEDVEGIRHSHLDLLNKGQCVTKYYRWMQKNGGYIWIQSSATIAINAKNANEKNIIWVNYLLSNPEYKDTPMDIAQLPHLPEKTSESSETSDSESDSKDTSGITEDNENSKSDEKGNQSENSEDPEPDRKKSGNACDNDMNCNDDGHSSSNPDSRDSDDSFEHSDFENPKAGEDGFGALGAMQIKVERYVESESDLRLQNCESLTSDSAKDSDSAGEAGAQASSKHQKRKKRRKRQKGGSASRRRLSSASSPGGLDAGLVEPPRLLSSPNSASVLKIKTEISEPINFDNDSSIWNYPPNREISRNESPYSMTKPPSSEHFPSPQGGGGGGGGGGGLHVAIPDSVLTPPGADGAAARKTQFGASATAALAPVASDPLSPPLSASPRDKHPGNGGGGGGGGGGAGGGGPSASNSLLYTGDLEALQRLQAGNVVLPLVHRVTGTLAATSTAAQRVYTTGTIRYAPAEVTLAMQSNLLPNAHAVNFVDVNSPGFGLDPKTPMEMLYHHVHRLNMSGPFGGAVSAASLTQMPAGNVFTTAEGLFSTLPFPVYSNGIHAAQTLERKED
Experiment: pull-down; HaloTag Mammalian Pull-Down (Promega), reciprocal: HaloTag-NPAS3 covalently linked to the resin, ARNT as prey (co-expressed untagged isoform 1 or endogenous); lysates of transfected HEK 293T cells; western blot

ARNT isoform 1, untagged (from UniProt P27540-1 1-789)
binding: binds
